From patent US20200261595A1 (Novo Nordisk, published 2020)

Tests used:
[1] = biological target: insulin receptor of isolated rat adipocytes (rat, UniProt P15127); assay: cell-based or functional assay
insulin receptor A = assay: insulin receptor binding assay as in Vienberg et al. 2011; relative to human insulin on insulin receptor A (100%)

| Binder | Lipogenesis in rat adipocytes [Potency (%)] Mean Value [1] | Insulin receptor affinity [IC50 relative to HI (%)] (insulin receptor A) |
| --- | --- | --- |
| A14E, B(-78K^), B(-77P), B(-1)(GQAPGQAPGQEP)6-GQAP, B3Q, B25H, B29R, desB30 human insulin/(227A, 234A, 235K hIgG4-Fc([…])) … (other, Cys229 (EU numbering) sulphur bound to an acetyl arm of the linker; B(-78K) N(eps) acylated by the trivalent linker 4-[bis[2-[(2-acetyl)amino]ethyl]amino]-4-oxo-butanoyl, also called Ex 5.3) chain 1: [letters of about 20 residues not shown] chain 2: KPGQAPGQAPGQEPGQAPGQAPGQEPGQAPGQAPGQEPGQAPGQAPGQEPGQAPGQAPGQEPGQAPGQAPGQEPGQAPFVQQHLCGSHLVEALYLVCGERGFHYTPR chain 3: ASCPAPEAKGGPSVFLFPPKPKDTLMISRTPEVTCVVVDVSQEDPEVQFNWYVDGVEVHNAKTKPREEQFNSTYRVVSVLTVLHQDWLNGKEYKCKVSNKGLPSSIEKTISKAKGQPREPQVYTLPPSQEEMTKNQVSLTCLVKGFYPSDIAVEWESNGQPENNYKTTPPVLDSDGSFFLYSRLTVDKSRWQEGNVFSCSVMHEALHNHYTQKSLSLSLGK | 0.55 % of human insulin | 2.57% |
| A14E, B(-78K^), B(-77P), B(-1)(GQEP)19, B25H, B29R, desB30 human insulin/(227A, 234A, 235K hIgG4-Fc([…])) 4-[bis[2-[(2-acetyl)amino]ethyl]amino]-4-oxo-butanoyl … (other, Cys229 (EU numbering) sulphur bound to an acetyl arm of the linker; B(-78K) N(eps) acylated by the trivalent linker 4-[bis[2-[(2-acetyl)amino]ethyl]amino]-4-oxo-butanoyl, also called Ex 5.4) chain 1: [letters of about 20 residues not shown] chain 2: KPGQEPGQEPGQEPGQEPGQEPGQEPGQEPGQEPGQEPGQEPGQEPGQEPGQEPGQEPGQEPGQEPGQEPGQEPGQEPFVNQHLCGSHLVEALYLVCGERGFHYTPR chain 3: ASCPAPEAKGGPSVFLFPPKPKDTLMISRTPEVTCVVVDVSQEDPEVQFNWYVDGVEVHNAKTKPREEQFNSTYRVVSVLTVLHQDWLNGKEYKCKVSNKGLPSSIEKTISKAKGQPREPQVYTLPPSQEEMTKNQVSLTCLVKGFYPSDIAVEWESNGQPENNYKTTPPVLDSDGSFFLYSRLTVDKSRWQEGNVFSCSVMHEALHNHYTQKSLSLSLGK | 0.36 % of human insulin | 2.14% |

Continued, values first:

| Lipogenesis in rat adipocytes [Potency (%)] Mean Value [1] | Insulin receptor affinity [IC50 relative to HI (%)] (insulin receptor A) | Binder |
| --- | --- | --- |
| 0.39 % of human insulin | 1.72% | A14E, B(-78K^), B(-77P), B(-1)(GQEP)19, B25H, B29R, desB30 human insulin/(227A, 234A, 235K, 297E, 315Q, 384Q, des447 hIgG4-Fc([…])) … (other, Cys229 (EU numbering) sulphur bound to an acetyl arm of the linker; B(-78K) N(eps) acylated by the trivalent linker 4-[bis[2-[(2-acetyl)amino]ethyl]amino]-4-oxo-butanoyl, also called Ex 5.11) chain 1: [letters of about 20 residues not shown] chain 2: KPGQEPGQEPGQEPGQEPGQEPGQEPGQEPGQEPGQEPGQEPGQEPGQEPGQEPGQEPGQEPGQEPGQEPGQEPGQEPFVNQHLCGSHLVEALYLVCGERGFHYTPR chain 3: ASCPAPEAKGGPSVFLFPPKPKDTLMISRTPEVTCVVVDVSQEDPEVQFNWYVDGVEVHNAKTKPREEQFESTYRVVSVLTVLHQDWLQGKEYKCKVSNKGLPSSIEKTISKAKGQPREPQVYTLPPSQEEMTKNQVSLTCLVKGFYPSDIAVEWESQGQPENNYKTTPPVLDSDGSFFLYSRLTVDKSRWQEGNVFSCSVMHEALHNHYTQKSLSLSLG |
|  | 2.78% | A14E, B(-78K^), B(-77P), B(-1)(GQAP)19, B25H, B29R, desB30 human insulin/(227A, 234A, 235K, 297E, 315Q, 384Q, des447 hIgG4-Fc([…])) … (other, Cys229 (EU numbering) sulphur bound to an acetyl arm of the linker; B(-78K) N(eps) acylated by the trivalent linker 4-[bis[2-[(2-acetyl)amino]ethyl]amino]-4-oxo-butanoyl, also called Ex 5.18) chain 1: [letters of about 20 residues not shown] chain 2: KPGQAPGQAPGQAPGQAPGQAPGQAPGQAPGQAPGQAPGQAPGQAPGQAPGQAPGQAPGQAPGQAPGQAPGQAPGQAPFVNQHLCGSHLVEALYLVCGERGFHYTPR chain 3: ASCPAPEAKGGPSVFLFPPKPKDTLMISRTPEVTCVVVDVSQEDPEVQFNWYVDGVEVHNAKTKPREEQFESTYRVVSVLTVLHQDWLQGKEYKCKVSNKGLPSSIEKTISKAKGQPREPQVYTLPPSQEEMTKNQVSLTCLVKGFYPSDIAVEWESQGQPENNYKTTPPVLDSDGSFFLYSRLTVDKSRWQEGNVFSCSVMHEALHNHYTQKSLSLSLG |
